Assay results: the supplement of paper PMC3334620
Whole data set: some 33,000 sequences, median “E-score (-0.5 to 0.5)” near -0.012, cut for the highest 2% near 0.29. The list shows a part of the results.

molecular target: T1, Ybr033w (UniProt P38073); experiment: PBM E-score (8-mer binding enrichment) (E-score (-0.5 to 0.5)); higher = stronger / more preferred TF binding; most listed sequences are background and not binding sites; conditions: protein concentration: 200 nM; construct: GST-full length
T1 sequence: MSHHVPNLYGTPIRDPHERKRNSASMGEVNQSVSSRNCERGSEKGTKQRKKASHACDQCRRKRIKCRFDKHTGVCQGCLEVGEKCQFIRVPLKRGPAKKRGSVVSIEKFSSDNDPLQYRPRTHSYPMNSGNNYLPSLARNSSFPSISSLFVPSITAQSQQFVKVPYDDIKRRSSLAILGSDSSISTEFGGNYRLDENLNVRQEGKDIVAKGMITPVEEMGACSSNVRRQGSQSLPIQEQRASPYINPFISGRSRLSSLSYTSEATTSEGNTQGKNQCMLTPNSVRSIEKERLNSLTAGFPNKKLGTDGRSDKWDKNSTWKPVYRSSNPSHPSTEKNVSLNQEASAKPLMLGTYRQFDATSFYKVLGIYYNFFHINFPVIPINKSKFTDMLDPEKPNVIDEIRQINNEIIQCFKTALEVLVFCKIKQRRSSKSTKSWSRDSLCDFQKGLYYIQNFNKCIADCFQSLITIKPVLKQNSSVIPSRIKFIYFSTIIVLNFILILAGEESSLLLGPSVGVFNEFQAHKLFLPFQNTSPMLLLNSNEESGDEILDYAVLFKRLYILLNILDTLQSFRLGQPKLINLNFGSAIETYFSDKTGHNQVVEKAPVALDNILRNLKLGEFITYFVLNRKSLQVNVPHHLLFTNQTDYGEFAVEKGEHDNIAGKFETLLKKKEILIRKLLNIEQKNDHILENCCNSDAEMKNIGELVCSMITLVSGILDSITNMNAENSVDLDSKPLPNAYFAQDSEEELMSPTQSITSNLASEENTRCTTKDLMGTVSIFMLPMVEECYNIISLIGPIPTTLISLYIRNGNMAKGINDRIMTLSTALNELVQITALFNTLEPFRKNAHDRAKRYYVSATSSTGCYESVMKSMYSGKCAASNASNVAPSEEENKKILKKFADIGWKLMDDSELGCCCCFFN
In short: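 Detection of bound protein used fluorescent anti-GST, with scans normalised by masliner. The proteins were GST-tagged yeast transcription factors applied at about 100-200 nM to universal all-10-mer Agilent arrays made double-stranded by primer extension. Each ungapped eight-base word, pooled with its reverse complement, was scored with an E-score from the Universal PBM Analysis Suite.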

Row | Sequence | PBM E-score
1 | CATACTCA | 0.116
2 | GCTCTTCA | -0.0939
3 | CTTTAAAC | 0.0871
4 | CGGATGAA | 0.371
5 | AGTCTGCA | -0.275
6 | CAGCAGCA | 0.0143
7 | ATCATATG | 0.19
8 | AAGTCTGG | -0.0694
9 | GACTCGCA | -0.0199
10 | GATAACGA | 0.171
11 | ATCCATCG | 0.0546
12 | ATGTAGAG | -0.0059
13 | CAAAATTG | 0.0527
14 | CACAATGA | 0.0642
15 | CCCTCTAG | -0.163
16 | CCGATACA | 0.0311
17 | CCCTCTGC | -0.235
18 | ATGCTGCG | -0.15
19 | CTCAAACC | 0.0489
20 | AATGGCGG | -0.0429
21 | AATCGGTC | 0.034
22 | GTACAGAC | -0.1
23 | ACTAGTTG | -0.071
24 | CGAGGGAG | -0.223
25 | CCATCTTA | -0.14

Row | Sequence | PBM E-score
26 | CACAGTAG | 0.0135
27 | ACTAAGTA | 0.0353
28 | AGGTATGC | 0.127
29 | CCGGCCAC | -0.162
30 | AAGGGCGC | 0.0645
31 | CATCTACC | 0.0235
32 | AACACGGA | 0.0405
33 | ATAGTGCG | 0.0631
34 | CGGACTTA | -0.0464
35 | GCAGGCGA | -0.332
36 | GACAGGTC | -0.38
37 | TAAATAAA | 0.301
38 | CAGCGTTA | -0.123
39 | ATAGGCGA | -0.0643
40 | GGCTGACC | -0.232
41 | CGTTAGTA | 0.171
42 | CGGTCTAC | -0.0984
43 | AACAATCG | 0.0843
44 | GATAACCA | 0.0836
45 | TCGGAGAA | 0.152
46 | CCTTAAGC | -0.178
47 | ACTGGGGC | -0.224
48 | CGACGAGC | -0.193
49 | TCGAGCAA | 0.146
50 | AGGACATG | -0.0251

Row | Sequence | PBM E-score
51 | ACAGTAAC | 0.199
52 | CCCCTAGC | -0.297
53 | GGCACGCA | -0.153
54 | CACTGCTA | 0.0266
55 | ACGCGGGG | -0.104
56 | CGTCCGAG | -0.0798
57 | AACTAGTG | 0.107
58 | AGACCTAG | -0.0713
59 | AGTCGGGG | -0.194
60 | CAATCCTA | -0.0184
61 | TATGTCGA | 0.13
62 | CTCGTTAC | -0.113
63 | AAATACGT | 0.163
64 | CTCTGCGA | -0.0389
65 | CTTGTCTA | 0.0137
66 | AACGAACG | -0.0204
67 | CCGACCCC | -0.42
68 | AAGGCTCC | -0.343
69 | AGACGCTC | -0.261
70 | AGATCCCA | -0.01
71 | CTATCACC | -0.0949
72 | CTTTACAA | 0.0948
73 | CTTCTTGA | 0.158
74 | ACCAGAGA | 0.0781
75 | CAGCTGGA | 0.0374

Row | Sequence | PBM E-score
76 | ACTGGACG | -0.221
77 | GTTAACGA | 0.167
78 | GGCGAATA | -0.0889
79 | GCACTAAA | 0.225
80 | GGAGTCAA | -0.0842
81 | AGATTGTC | 0.0249
82 | CTATTTGA | 0.227
83 | AACTAGGA | 0.098
84 | CCCACCCA | -0.154
85 | GAAGATAC | 0.17
86 | TAATGTCA | 0.256
87 | AGTATTAT | 0.138
88 | GCTAGGCC | -0.295
89 | AACTATGG | -0.131
90 | AGAACTTC | 0.00762
91 | CAAAAATG | 0.157
92 | AAAGGTTG | -0.131
93 | CCTGACGC | -0.3
94 | AGGACAGG | -0.113
95 | CAGGAGCA | -0.118
96 | GCGGCCGA | -0.114
97 | CATCGTCC | -0.0871
98 | AAGACTGC | -0.296
99 | ACACAGCA | 0.145
100 | AGCGACTG | -0.132

Row | Sequence | PBM E-score
101 | TAAATAGA | 0.0889
102 | AGGGTTTG | 0.078
103 | CACCGCGC | -0.0895
104 | AAGTTTAG | 0.128
105 | ATCACACG | -0.0221
106 | ATTCTGAA | 0.187
107 | CGGTTTGA | -0.125
108 | CGGTTTGC | -0.142
109 | AAAGATTG | 0.133
110 | ACTTAGGG | 0.0105
111 | GGGCGGCA | -0.331
112 | CTGAATCC | 0.0548
113 | AGCCTCAG | -0.0326
114 | CCGAGCGG | -0.119
115 | AGGAATCG | 0.116
116 | CATGGTGC | -0.156
117 | GTCATTTA | -0.0316
118 | ACCGCGAT | 0.125
119 | AAGATCCC | 0.0772
120 | AGGCGATC | -0.189
121 | GGATGAGA | -0.229
122 | ATTGGTGA | 0.0383
123 | CGTGGTGC | -0.178
124 | ATTACACA | 0.184
125 | CCACATGC | -0.0219

Row | Sequence | PBM E-score
126 | GAGTTCAA | 0.0343
127 | GATCCTGC | -0.0731
128 | AGAGTCCT | -0.113
129 | GACCCAGA | -0.114
130 | CACTTATG | -0.027
131 | TACTGCCA | 0.038
132 | CCCGAAGC | -0.0315
133 | TCTTCTCA | 0.0537
134 | CGCGGGAG | -0.286
135 | GCGCCAAC | 0.0829
136 | ATTAAAAC | 0.272
137 | ACCAGAGT | -0.181
138 | ATGCGCCG | -0.146
139 | ACTACGAT | 0.162
140 | AGTGCGCA | 0.0335
141 | CAGGAGCC | -0.343
142 | AGGTTGGC | -0.104
143 | GTGGCACA | -0.228
144 | AGTGTACC | -0.15
145 | CTTTTTTC | 0.217
146 | GCCGGCGC | -0.0518
147 | CTGGTTCC | -0.153
148 | TAGCCCGA | -0.0462
149 | CCGATGAA | 0.0214
150 | AGATTCTC | 0.146

Row | Sequence | PBM E-score
151 | CTGATCAG | 0.0373
152 | AACAATAG | 0.127
153 | GCACTTGA | -0.0452
154 | CGTATCAA | 0.0866
155 | ATCACGAC | -0.0763
156 | TGATTCCA | 0.135
157 | ATGCGCTC | 0.111
158 | ACACCTTA | 0.119
159 | CACATGTC | -0.137
160 | AATGCAGG | -0.0597
161 | ATTGTCGA | 0.0343
162 | ACATAAGA | 0.293
163 | AACAGCAG | 0.065
164 | AGATGCAA | 0.07
165 | AACAGACA | 0.196
166 | CAATTCCG | 0.0975
167 | GACAGACC | -0.114
168 | GGAGTCAC | -0.234
169 | GCCTTTCA | -0.0076
170 | ATGGCAGG | -0.115
171 | GTCCGCAA | 0.0112
172 | AGACAAGG | -0.262
